This is one part of the list. At the low end of the ranking the order means little. The protein was read in a cell extract, so binding may be indirect.

The target of the test is T1, HNF4alpha8 (COS-7 nuclear extract) (UniProt P41235-5).
T1 sequence: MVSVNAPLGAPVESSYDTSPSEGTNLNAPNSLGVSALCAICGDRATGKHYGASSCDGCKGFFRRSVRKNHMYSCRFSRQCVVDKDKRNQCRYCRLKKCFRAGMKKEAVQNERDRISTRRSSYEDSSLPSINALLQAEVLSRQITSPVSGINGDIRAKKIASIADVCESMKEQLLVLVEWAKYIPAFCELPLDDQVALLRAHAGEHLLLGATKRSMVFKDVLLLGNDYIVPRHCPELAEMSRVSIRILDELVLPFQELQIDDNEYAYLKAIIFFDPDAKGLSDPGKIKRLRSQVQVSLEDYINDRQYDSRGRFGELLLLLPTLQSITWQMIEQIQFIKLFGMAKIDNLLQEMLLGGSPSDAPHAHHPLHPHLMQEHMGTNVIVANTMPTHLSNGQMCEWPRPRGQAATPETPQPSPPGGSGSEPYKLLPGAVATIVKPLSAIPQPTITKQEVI
Nature of the test: protein-binding microarray. The settings on record: COS-7 nuclear extract on double-stranded Agilent 4x180k PBM; binding buffer, salt, pH and temperature not given; high values mean tight binding; double strand, one strand shown; sequences stand for … in …GCCTAGGGAGATTAGAGTATCGGTCGA
With CCACAGCAGAAGGCAACAGCTCTGGAGGAT, the binding signal (log2 normalized intensity) is -1.31.

Regarding GGCATAGTTGCATATCTGGAATTTCAAAGG, the binding signal (log2 normalized intensity) was found to be 1.45.

Consider CACAAGGAATGCCCTTATCTCCCAGCCACC, for which the binding signal (log2 normalized intensity) amounted to 1.75.

With AGTTGGTATTTAGTAAATATTAGGCAAGCT, the binding signal (log2 normalized intensity) is -1.28.

GCTCAAGCCTGTTCCGACCTTAGTACTCTG: the binding signal (log2 normalized intensity) was found to be 4.95.

As to CATAACTCAGCGGGAGGCAAGATAAGGGTA, the binding signal (log2 normalized intensity) is -1.27.

CTCATTCTGATATGCACTGTCAGTTTTTCC: the binding signal (log2 normalized intensity) was 1.32.

Consider TTGTACATGGGAATAGACATTCCAGAAATA, for which the binding signal (log2 normalized intensity) is -0.386.

As for CCTCTGTAGGGCAGCAGCCGGCCTCTTAAC, the binding signal (log2 normalized intensity) was -1.35.

Take CTGGAGGATAAAGTTCAAGTAGATAAAATC: the binding signal (log2 normalized intensity) is 2.11.

Turning to CTCTGATCCTAGTCTTTGCCCCACTGCAAG, the binding signal (log2 normalized intensity) amounted to 3.15.

On to CTGACTAAAGTTCATTGCTTTGAGCATGAG, for which the binding signal (log2 normalized intensity) was 2.19.

Turning to GTGACTTGCTCAGTGTCACAGACTTAGCAC, the binding signal (log2 normalized intensity) stood at 0.789.

For CTTTGGAGGGAGCCAGGTTATGCAGAGCTT, the binding signal (log2 normalized intensity) is -1.26.

For TCACCAGATACTGAATCTCCCAGTGCTTTG, the binding signal (log2 normalized intensity) was -1.25.

For GTGTCTTATCTTCCTCTGGCATCTGGTCAG, the binding signal (log2 normalized intensity) worked out at 2.09.

As to CAGTCAGTGAGACGTTCCAAACCGGTCTTT, the binding signal (log2 normalized intensity) worked out at 0.804.

With CTTTACCCCCATTTGGTAATGGGCCCCCAT, the binding signal (log2 normalized intensity) came out at 4.85.

Turning to GAAAAATGAATAACTTGAATTGATTGCCAA, the binding signal (log2 normalized intensity) was -1.02.

For the sequence CCAGGTGGCTGCATCCTTCTCCTCCCCTCC, the binding signal (log2 normalized intensity) was 3.45.

As to TACAGCTCATTAATCATCCGTCACCCAGAC, the binding signal (log2 normalized intensity) was -0.0904.

As to AACGGCCCAGGGTTAGAGGATGACCTTCCC, the binding signal (log2 normalized intensity) is 3.71.

Turning to GTTGACCTTTAGTCTCTAGCCCCGCCCAGA, the binding signal (log2 normalized intensity) was found to be 5.33.

For the sequence TCAGTGTTTTCACTGCTGGGTTTCTTCCCT, the binding signal (log2 normalized intensity) was 1.04.

On to TGATTACCAGACAAGATCAATCAATTTACC, for which the binding signal (log2 normalized intensity) was -1.2.

As for CTTTCTAATCTCAAAGTGTCAGTCCAGAGT, the binding signal (log2 normalized intensity) is 1.8.

CGCTTGAGCCTGGGAGGCAAAGGTTGCAGT: the binding signal (log2 normalized intensity) amounted to 3.22.

Turning to GGCGGGGAGAGGGAAGAGTCTTCTCTTGAC, the binding signal (log2 normalized intensity) is -1.4.

Regarding GATAAGAAAAACTGAGCTTTAGATAGCTGT, the binding signal (log2 normalized intensity) was -1.26.

In the case of CTGAAGTGGCCCAAGATGGAGATGAGAAAC, the binding signal (log2 normalized intensity) is -1.24.

With ACATCCTGGGTTATGATCCTGGCTCTCCCA, the binding signal (log2 normalized intensity) was -0.874.

Turning to ATGGGGGCTCAGGGCCTCTCTTCTTGTAAT, the binding signal (log2 normalized intensity) is 0.531.

With TCTGGTTTGACCTTAAGTCAGAAGAACTGA, the binding signal (log2 normalized intensity) was 3.25.

Turning to CTAAAACCCATATCTGACTGATGCTAAAGT, the binding signal (log2 normalized intensity) is 0.684.

Take AGCCTTTTGTCTGGTGGAGTAGAGCACATT: the binding signal (log2 normalized intensity) was 0.578.

As to AGGTCAGTCGACCCTCTCTGGATGCAGGTC, the binding signal (log2 normalized intensity) was found to be 1.47.

In the case of TAATGAAATACCACTGCACACATAATAGAT, the binding signal (log2 normalized intensity) was -1.3.

In the case of CATCCCACATTCCACAGACTCACTTCCAGA, the binding signal (log2 normalized intensity) is -1.23.

For the sequence GGTCGGAAGGGAGGTGCCATGTCACCGCAC, the binding signal (log2 normalized intensity) was -1.19.

For GACCCAAGAAATAAAAACAGCTGGGTTCCA, the binding signal (log2 normalized intensity) is -1.39.

TTGCCCCTTTGACCCTCGGGCCTCCCTAGA: the binding signal (log2 normalized intensity) was 4.81.

As to TTTCAGACTATTTTATTTTCCCCCTTTGAA, the binding signal (log2 normalized intensity) came out at 3.99.

GCAATATGATAACCCAGTGCAATGCCTAAA: the binding signal (log2 normalized intensity) is -1.26.

As to AAAACCACTGTGCTCTGAAAAGTGAACTGT, the binding signal (log2 normalized intensity) was determined as 2.69.

As to CATGGTTTGCAAGACCTCTGAGAACTGGCC, the binding signal (log2 normalized intensity) stood at 0.0358.

For CCCACCCCCAAATCCCCTTCAAGTCTGAGA, the binding signal (log2 normalized intensity) was 5.01.

In the case of TTCTTTCCCTCCAGCCCACTTACCACCCAC, the binding signal (log2 normalized intensity) stood at 4.27.

As to AATTTGACCTCATTTGCTCCCAGTGCACAC, the binding signal (log2 normalized intensity) was found to be 1.83.

Turning to GGGAAACACAGACTCCAAAGAATGGAAGGC, the binding signal (log2 normalized intensity) was -1.01.

On to AGGGCAAGGGACAGGGGCCCAAGATAAAGG, for which the binding signal (log2 normalized intensity) is -1.13.

In the case of GTTGACCACCTGCCCCAGGAATGCCTTTTC, the binding signal (log2 normalized intensity) is 1.87.

For CACTTCCCGAGTGAGGCAATGCCTCGCCCT, the binding signal (log2 normalized intensity) is -0.664.

In the case of ACCAAGGGTCATGCTGGTCTCCTTGCCCCA, the binding signal (log2 normalized intensity) was determined as 2.18.

As to GGGTGGCCCTCTCCCGGGGAGGTCAACCAG, the binding signal (log2 normalized intensity) was 3.41.

Take AGAAGCCAGGGACCAGGAAGGCAGTAAGAG: the binding signal (log2 normalized intensity) is -1.44.

Turning to AAAAGGCCGTTCAAAGGCAGCCTTCGTTTG, the binding signal (log2 normalized intensity) was -1.32.

Turning to ACTGCACACCGTCCAGAGGCTCCAAAGGAC, the binding signal (log2 normalized intensity) was -1.21.

As to GCCACCCTCCTCTCTGGGTCAAAGGTCATC, the binding signal (log2 normalized intensity) worked out at 10.2.

Consider GGCAGGGCCAGATAAAGCAGGTTGTACCTT, for which the binding signal (log2 normalized intensity) turned out to be 3.15.

ATGATACCCCAGAGTACAGCACTTTGGCGT: the binding signal (log2 normalized intensity) was found to be 1.23.

Turning to GTACTTAAAAATGCCTTTCATCTTTGAGAA, the binding signal (log2 normalized intensity) was 0.583.

TTCATCATGATTGTAGCCAAACTCACAGCT: the binding signal (log2 normalized intensity) was -0.412.

In the case of ACTCAAGATAGAGGGCTGCCAAAGCTCACA, the binding signal (log2 normalized intensity) is -1.31.

Take AATACATAAAGTCCAAACCCCTATGTTTAA: the binding signal (log2 normalized intensity) turned out to be 2.54.

Turning to CTTCATCTTCAATACAGAGTCCAAATTCCT, the binding signal (log2 normalized intensity) was determined as 4.06.

In the case of TGGACTAGGCAAAAGACAGTGATTGTCACA, the binding signal (log2 normalized intensity) was -1.35.

As to CCTGTTCAAACTAAACCTAAAGATTCTAAG, the binding signal (log2 normalized intensity) was -1.27.

As for GCCCTTTGGATTTAGGCAGTTTTTGATCAA, the binding signal (log2 normalized intensity) came out at 2.5.

Consider AAGGAAGGTGGGGGCCGCCCATTGGGATCC, for which the binding signal (log2 normalized intensity) was -1.37.

On to AGAGATTAAAGGTCAAGCCCAACCAAAGTA, for which the binding signal (log2 normalized intensity) is 4.65.

For GCGGGGCCTCCCAGTGGTATGCCTCTGGGT, the binding signal (log2 normalized intensity) is -0.645.

Turning to AGGGGTTAACCTCTATTGACCTTCTTATTT, the binding signal (log2 normalized intensity) was found to be 3.7.

AGAGCAGGTGCTCGGTGAGTGCTTCTTGAA: the binding signal (log2 normalized intensity) was -1.06.

In the case of CCAGGGAACAAGGGGTGGATCTCTGTCATG, the binding signal (log2 normalized intensity) is -1.01.

On to CCTGCCCTTTGCTCCAGAGGAAGATATTAT, for which the binding signal (log2 normalized intensity) turned out to be 2.04.

On to GATAGATGCTGCTCTCCCACTCCCCCTGCT, for which the binding signal (log2 normalized intensity) was 3.68.

Consider TGCTTCCAAGTTATGCAGACCTTTGCCCTT, for which the binding signal (log2 normalized intensity) stood at 7.7.

AAGTTTGGTAAGCAGACCCCTACTGGGGAT: the binding signal (log2 normalized intensity) was -1.05.

Take GGCCCCTCTCTTTTATTATATTGAATTCCT: the binding signal (log2 normalized intensity) turned out to be 0.392.

With TCAGCAGGATTTGTTTGATTTAGGACTTAC, the binding signal (log2 normalized intensity) was found to be 1.55.

On to CCGTCCCAAGCTGAGGTCTGGTGTCCAGTT, for which the binding signal (log2 normalized intensity) came out at 1.21.

As for GGATTAGCGATCATGGGTGACCCGTTAAGA, the binding signal (log2 normalized intensity) is 1.44.

As to GGAAAGATCAGCTGAAAACTATGCATGCTG, the binding signal (log2 normalized intensity) was -1.3.

As for GACATTCCAGCCACTAAGAAGCCCAAGGTT, the binding signal (log2 normalized intensity) was -1.31.

Consider AGGACGTCAGGCAGAGAGGGACTCTGACCC, for which the binding signal (log2 normalized intensity) came out at 6.01.

Turning to ACTCTCAATTCAAGTATGCACCCTTATCAG, the binding signal (log2 normalized intensity) turned out to be 0.459.

Take GGTAGAGGGACACTGATAACATGAGGATAC: the binding signal (log2 normalized intensity) was -1.3.

In the case of CCACTGAGGTCAAGATAAGATACGAAGGGT, the binding signal (log2 normalized intensity) is -0.296.

With AATCAGGAGCAAAGGTTGGGGGTGGGGAGG, the binding signal (log2 normalized intensity) is 0.505.

For the sequence CCAGTTGAGTGCAAAGTCCCTAGAAGGGAT, the binding signal (log2 normalized intensity) came out at 1.94.

Consider TTCATAACCAAAGGATTATTACATGTTTAC, for which the binding signal (log2 normalized intensity) worked out at 0.879.

With AGAAGCTCCAGAAATACAGAAGCTGCTCTA, the binding signal (log2 normalized intensity) is -1.26.

Turning to AATACTCTGAGTAAACACAGACTTTGGAAT, the binding signal (log2 normalized intensity) is 4.55.

Values taken from PMC10726135.
